# Data from PubChem BioAssay (NCATS).
# This list was built around the results that the source calls inconclusive (neither active nor inactive); the mix of calls is not that of the screen. For part of these data: No potency is given beside an inconclusive call; the fits are too rough. The source made the active and inactive calls. Unless noted, calls follow the shape of the dose curve; as a rule, active = well fitted curve in the direction sought with a large enough effect; inconclusive = small, poorly fitted or top-dose-only effect, or another doubt; inactive = no such curve, though single readings can be large; an effect the other way counts as inactive or inconclusive.
# Legend:
# [1] = biological target: Cytochrome P450 2C9 (Homo sapiens) (UniProt P11712); assay: Cytochrome P450 family 2 subfamily C member 9 (CYP2C9) small molecule antagonists: luciferase biochemical (cell-free) qHTS assay (AID 1645842; active = well fitted curve in the direction sought with a large enough effect in the repeat runs; inconclusive = weak or mixed curves; inactive = no such curve, though single readings can be large; an effect the other way counts as inactive or inconclusive; also: potency is read from the fitted curve at half-maximal effect; nearly all actives have a fitted effect of over 55% in size)
# Chain of UniProt P11712 (P11712 whole entry, looked up): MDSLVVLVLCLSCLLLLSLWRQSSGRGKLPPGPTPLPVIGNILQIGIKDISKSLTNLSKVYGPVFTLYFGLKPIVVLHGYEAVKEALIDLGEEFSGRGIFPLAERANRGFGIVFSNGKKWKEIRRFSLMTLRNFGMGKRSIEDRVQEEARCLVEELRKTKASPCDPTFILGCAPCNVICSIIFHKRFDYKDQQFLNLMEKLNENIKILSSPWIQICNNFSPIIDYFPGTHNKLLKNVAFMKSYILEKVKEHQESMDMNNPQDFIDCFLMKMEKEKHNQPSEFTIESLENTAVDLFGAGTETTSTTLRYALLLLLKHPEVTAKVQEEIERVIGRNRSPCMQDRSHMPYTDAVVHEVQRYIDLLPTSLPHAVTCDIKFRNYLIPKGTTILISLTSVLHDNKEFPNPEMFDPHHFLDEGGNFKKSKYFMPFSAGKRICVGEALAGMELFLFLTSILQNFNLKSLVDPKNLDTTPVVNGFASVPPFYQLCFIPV
# How it was run: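 Luminescence, after 20 min with luciferin detection reagent, reflected CYP2C9 turnover during a 1 h NADPH-driven reaction at 37C. Enzyme-substrate mix contained 0.4% bovine serum albumin and was preincubated with compound 10 min at room temperature.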
# [2] = qHTS to identify inhibitors of the type 1 interferon - major histocompatibility complex class I in skeletal muscle: primary screen against the NCATS Mechanism Interrogation Plate v5.0 (MIPE) Libary (AID 1347411); settings: iHSKM cells + IFN-b, HiBiT-tagged MHC-I luminescence, 24 h; activity change, negative = inhibition: at 45.8 µM (top of the series); also: potency is read from the fitted curve at half-maximal effect; nearly all actives have a fitted effect of over 65% in size
# How it was run: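 Cells were genome-edited human myoblasts carrying a HiBit tag on endogenous HLA-B. They were treated with IFN-beta (4.0 ng/ml) and titrated compounds (top 46 uM) for 24 hrs before lytic HiBiT detection.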
# [3] = test system: JEG-3; assay: Primary qHTS to identify gynecologic anti-cancer compounds using libraries of approved drugs and bioactive compounds (AID 1345084); settings: Gynecologic cancer cell panel viability, ATPlite luminescence, 48 h; series mostly up to 57.5 µM; also: nearly all actives have a fitted effect of over 55% in size; also: potency is read from the fitted curve at half-maximal effect; as to activity change, negative = cytotoxicity: % is scaled to controls: 0 for no effect and ±100 for the full control effect
# How it was run: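 Five-concentration response, 48 h; readout is ATP-driven luciferase luminescence.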
# [4] = qHTS assay to identify inhibitors of the type 1 interferon - major histocompatibility complex class I in skeletal muscle: Counter screen cell viability and HiBit confirmation (AID 1347412); settings: iHSKM muscle cells + IFN-b, HiBiT or CellTiter-Glo, 24 h; also: nearly all actives have a fitted effect of over 60% in size; also: potency is read from the fitted curve at half-maximal effect; as to activity change, negative = inhibition: % is scaled to controls: 0 for no effect and ±100 for the full control effect
# How it was run: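 Luminescence read-out: Nano-Glo HiBiT lytic signal from C-terminally HiBiT-tagged HLA-B in CRISPR-edited human myoblasts, plus CellTiter Glo ATP as viability counter screen. IFN-beta 4.0 ng/ml; 24 hrs treatment at 37 C, 5% CO2.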
# [5] = qHTS of pediatric cancer cell lines to identify multiple opportunities for drug repurposing: Primary screen for DAOY cells (AID 1347090); settings: DAOY medulloblastoma viability, CellTiter-Glo luminescence, 48 h; activity change, negative = cytotoxic: at 46 µM (top of the series); also: potency is read from the fitted curve at half-maximal effect; nearly all actives have a fitted effect of over 55% in size
# How it was run: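 Cell viability, CellTiter-Glo luminescence; 500-1,000 cells/well, 8- or 11-point titration, 48 h compound exposure at 37 degrees C, 5% CO2. Controls: DMSO neutral, bortezomib 2.3 µM final as positive.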
# [6] = qHTS of pediatric cancer cell lines to identify multiple opportunities for drug repurposing: Primary screen for BT-12 cells (AID 1347101); also: potency is read from the fitted curve at half-maximal effect; nearly all actives have a fitted effect of over 25% in size
# How it was run: (§1)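 Cells (500-1,000/well) rested 5 h, then received compounds for 48 h; metabolically active cells were measured by CellTiter-Glo luminescence. Final concentrations spanned up to 46 µM (MIPE, 11-point) or 0.59 nM-46 µM (NPC, 8-point) in primary screens, 11-point in follow-ups.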
# [7] = qHTS of pediatric cancer cell lines to identify multiple opportunities for drug repurposing: Primary screen for OHS-50 cells (AID 1347103); also: potency is read from the fitted curve at half-maximal effect; nearly all actives have a fitted effect of over 40% in size
# How it was run: as §1
# [8] = Quantitative High-Throughput drug screen in 47 multiple myeloma cell lines against the NCATS MIPE library collection: Karpas417_ECACC cell viability assay (AID 1918961); settings: Karpas417 myeloma viability, CellTiter-Glo ATP luminescence, 48 h; viability (% of DMSO): at 45.8 µM (top of the series)
# How it was run: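 We plated 500 myeloma cells per well, pinned in MIPE 4.0 compounds, and incubated for 48 hours at 37C. ATP was then quantified with CellTiter-Glo, with DMSO and media-only wells defining 100% and 0%.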
# [9] = Quantitative High-Throughput drug screen in 47 multiple myeloma cell lines against the NCATS MIPE library collection: KMS20_JCRB cell viability assay (AID 1918973); settings: CellTiter-Glo ATP, 48 h; viability (% of DMSO): at 45.8 µM (top of the series); also: potency is read from the fitted curve at half-maximal effect; nearly all actives have a fitted effect of over 45% in size
# How it was run: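 qHTS of the MIPE 4.0 collection: 500 myeloma cells/well, 48 h drug exposure at 37C in 5% CO2, then CellTiter-Glo for 5 min at room temperature before luminescence reading.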
# [10] = qHTS for identification of novel therapeutic agents for treatment of microphthalmiaassociated transcription factor (MiT) renal cell carcinoma (RCC) (AID 1963991; calls by dose curve; also: potency is read from the fitted curve at half-maximal effect); settings: TFE3-RCC UOK109 viability, CellTiter-Glo, 48 h; active = Z-AUC below -0.8 in all three lines
# How it was run: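 Three TFE3-fusion RCC cell lines (UOK109, UOK124, UOK145), 500 cells/well, were exposed to the 1912-compound MIPE 4.0 library for 48 hours at 37 C. Viability was read by CellTiter-Glo luminescence, normalised to DMSO (100%) and empty wells (0%), with 11-concentration curve fits.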
# [11] = test system: MCC-26; assay: qHTS assay to identify novel small-molecules to repurpose for Merkel cell carcinoma treatment (AID 1296009); settings: MCC and control cell lines, CellTiter-Glo viability, 72 h; activity change, negative = cytotoxicity: at 46 µM (top of the series); also: potency is read from the fitted curve at half-maximal effect; nearly all actives have a fitted effect of over 60% in size
# How it was run: (§2)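 After compound transfer in DMSO, plates were kept 72 hr at 37 degree celsius. Luminescent ATP signal from CellTiter-Glo served as viability measure, normalized against DMSO and no-cell controls.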
# [12] = test system: MKL-2; assay: as above; settings: MCC and control cell lines, CellTiter-Glo viability, 72 h; activity change, negative = cytotoxicity: at 46 µM (top of the series)
# How it was run: as §2
# Tags tell the direction and shape of the fitted curve.
compound,measurement,setting,value
CCCCNc1ccc(-c2ccc(CN3CCOCC3)cn2)c(NC2CCC(O)CC2)c1 (stereo unspecified),Potency,[1],"inconclusive [inhibitor, partial curve, poor fit]"
COc1cc2ncnc(Nc3cccc(O)c3)c2cc1OC,Potency,[1],"inconclusive [inhibitor, partial curve]"
Cc1cc(OCc2nnc(SC3CCCC3)n2-c2cccnc2)ccc1-c1ccc(S(C)(=O)=O)cc1,Potency,[2],"inconclusive [inhibitor, full curve, poor fit]"
same,Potency,[3],"inconclusive [cytotoxic, partial curve, poor fit]"
same,Potency,[4]; HiBiT,"inconclusive [inhibitor, partial curve]"
C(#Cc1nc2ncccc2nc1OCCN1CCCC1)c1ccccc1,Potency,[3],"inconclusive [cytotoxic, partial curve]"
Cc1cccc(-c2[nH]c(Cc3cccc(C(N)=O)c3)nc2-c2ccc3nccnc3c2)n1,Potency,[1],"inconclusive [inhibitor, single point]"
CC(C)(C)c1ccc(-c2nc3c(N4CCN(Cc5ccc6nccnc6c5)CC4)cccc3[nH]2)cc1,Potency,[3],"inconclusive [cytotoxic, single point]"
C=CC(=O)Nc1cccc(Nc2nc(Nc3ccc(OCCOC)cc3)ncc2F)c1,Potency,[2],"inconclusive [inhibitor, partial curve]"
COc1ccc(-c2cc3onc(-c4ccncc4)c3c(=O)n2C)cc1,Potency,[1],active: 952 nM
same,Potency,[3],"inconclusive [cytotoxic, partial curve, poor fit]"
Cc1nc(NC(=O)N2CCC[C@H]2C(N)=O)sc1-c1ccnc(C(C)(C)C(F)(F)F)c1,Potency,[2],"inconclusive [inhibitor, partial curve]"
same,Potency,[1],"inconclusive [inhibitor, partial curve]"
COc1ccc2c3ccnc4ccc(=O)n(c2c1)c43,Potency,[3],inactive
COc1ccc([C@H]2OC[C@H]3O[C@@H](O[C@H]4[C@@H]2NC[C@@H]4O)[C@H](O)[C@H]3O)cc1,Potency,[3],active: 5010 nM
Cc1cc2c(F)c(Oc3ncnn4cc(OCC(C)OC(=O)C(C)N)c(C)c34)ccc2[nH]1 (stereo unspecified),Potency,[3],"inconclusive [cytotoxic, single point]"
NS(=O)(=O)OC[C@@H]1C[C@@H](n2ccc3c(N[C@H]4CCc5ccccc54)ncnc32)C[C@@H]1O,Potency,[2],"inconclusive [inhibitor, full curve]"
same,Potency,[1],"inconclusive [inhibitor, single point]"
same,Potency,[4]; HiBiT,"inconclusive [inhibitor, full curve]"
same,"activity change, negative = inhibition","[4]; Viability, at 45.9 µM (top of the series)",inactive: -12.3%
CCCCn1c(-c2ccccc2)nc(-c2ccccc2)c1CN(Cc1ccc2c(c1)OCO2)Cc1ccc2c(c1)OCO2,Potency,[1],active: 2680 nM
CC(C)(C)c1ccc(S(=O)(=O)NCc2ccc(C(=O)Nc3cccnc3)cc2)cc1,Potency,[1],active: 12000 nM
same,Potency,[3],active: 2240 nM
CC[C@@H](N)CNc1ccnc(-c2cc(-c3cnn(C)c3)ccc2O)n1,Potency,[3],active: 12600 nM
O=C(Nc1ncc(-c2cc(C(F)F)nn2-c2c(Cl)cccc2Cl)s1)C1CC1,Potency,[5],"inconclusive [cytotoxic, full curve]"
same,Potency,[6],active: 968 nM
same,Potency,[7],active: 432 nM
same,Potency,[2],"inconclusive [inhibitor, full curve]"
same,viability (% of DMSO),[8],inconclusive: 6.4% [cytotoxic]
same,Potency,[9],active: 469 nM
same,Potency,[10],active: 935 nM
same,Potency,[3],"inconclusive [cytotoxic, full curve]"
same,Potency,[4]; HiBiT,"inconclusive [inhibitor, full curve]"
same,Potency,[4]; Viability,"inconclusive [cytotoxic, full curve, poor fit]"
same,Potency,[11],"inconclusive [inhibitor, full curve]"
same,Potency,[12],"inconclusive [inhibitor, full curve]"
